Laboratory results as given in the supplement of paper PMC11383711.
Where a chain is given by its changes, count along the chain named. This is one part of the list. Binding of human antibodies (heavy:light variable regions, tested as scFv in one mRNA-display pool) to influenza hemagglutinin, with or without the stem antibody CR9114 bound first. Score = (mean enrichment − median) / interquartile range of that screen; higher = more enriched, 0 = typical non-binder. Active = above the paper's cut-off per screen: stems 28; unblocked H1 Solomon Islands 5, H1 Michigan 3, H3 5, H5 19, H7 2.85, both B 5; blocked 9, 7, H5 10, H7 10, B Phuket 10, B Lee 11.5. Scores are scaled within each screen and are no affinities; replicates correlate at about 0.6 to 0.9, and antibodies rare in the pool are noisier.

B1: AG12-3A03 (protein)
chain 1: VQLVESGGGLAQPGRSLRLSCRTSGFRFVDYGMSWFRQAPGKGLEWVSFIGSKSYGATKDYAASVRDRFIISRDDSKSIAYLEMNSLKTDDTAIYYCSRVPLLWRNGWDDDYWGQGTLVTVSS
chain 2: DIQMTQSPSSLSASVGDRVTITCRASQDITNYLAWFQQRPGEAPKSLIYGASGLQTGVPSRFSGSGSGTDFTLTINSLQPEDFATYYCQQFYNYPITFGGGTKVEIK
B2: 042-10-2C02 (protein)
chain 1: EVQLVESGGGLVQPGRSLRLSCKASGFKFGDFALSWVRQAPGKGLEWVGFIRSRRSGGTTEYVASVKGRFIISREDSKSIAYLQMNSLKTEDTAVYYCTRERMIDTGVGGHWGQGTLVTVSS
chain 2: DIVMTQSPLSLPVTPGESASISCRSSQSLQHSNGYNYLDWYLQKPGQSPQLLIFLASNRASGVPDRFSASGSGTDFTLHISRVEAEDVGVYYCLQGLQTPFTFGPGTKVDIK
B3: C2-3-G05 (protein)
chain 1: VQLQESGPGLVKPSETLSLTCTVSGGSISYSNFYWGWIRQPPGKGLEWIGSVYYSGTTYYNPSLKSRVTISIDTSKNQISLKLNFVTAADTALYYCSRLQPYTNYGRSHYYFYALDVWGQGTTVTVSS
chain 2: EIVLTQSPVTLSLSPGERATLSCRASQSIATSLAWYQHKPGQTPRLLIFDASERATGIPARFSGSGSGTDFTLTISSLEPEDFAVYYCQERSNWPRLTFGGGTKVEIK
B4: K77-2H12 (protein)
chain 1: EVQLVESGGGLVQPGGSLRLSCAASGFTFTNYWMTWVRQAPGKGLEWVANIKQDGSDKNYVDSLKGRFTISRDNAKKSLFLQMNSLGAEDTAVYYCARDFSDFGDLYFDYWGQGALVTVSS
chain 2: QSALTQPRSVSGSPGQSVTVSCTGTRSDVGGYNYVSWYQQHPGKAPKLIIYDVSERPSGVPDRFSGSKSGNTASLTISGLQAEDEADYYCCSYAGSYTWVFGGGTKLT
B5: 01.q.01 (protein)
chain 1: QVQLQESSPGLVKPSQTLSLKCTVSGGSVSGGRYSWNWLRQPAGKGLEWIGHIYTTGTINYNPSLRSRVTISVDTSKNQFSLKLSSMTAADTAVYFCARAHLPDVGHYYGLDVWGQGTTVTVSS
chain 2: DIQLTQSPSSLSASVGDRVTITCRASQGISSYLAWYQQKPGKAPKLLIYAASTLQSGVPSRFSGSGSGTYFTLTISSLQPEDFATYYCQQLNRDLTFGGGSKVEIK
B6: W85-1C01 (protein)
chain 1: QVQLQESGPRLVKPSETLSLTCTVSGGSISTTNYYWGWIRQTPGKGLEYIGSVSYSGKPYYNPSLRGRVTISVDTSKTQFSLTVISVTAADTAVYYCTRQAEGGWYGGFSNSWGQGTLVTVSS
chain 2: DIQMTQSPSTLSASVGDRVTITCRASQSISSWLAWYQQKAGKAPKLLIYKASTLEVGVPSRFSGRGSGTEFTLTISSLQPDDFATYYCQQYDSYLTFGGGTKVEIK
B7: K77-1E03 (protein)
chain 1: LVQLQESGPGLVKPSETLSLTCTVSDGSISNYYWSWIRQPPGKGLEWIGYIFYSGSTNYNPSLKSRVSISVDTSKNQFSLKLRSVTAADTAVYYCARRQGWFHNAFDIWGQGTMVIVSS
chain 2: DIQMTQSPSSLSASVGDRVTITCRASQSIYSYLSWYQQKPGKAPKLLIYAASSLQSGVPSRFSGSGSGTDFTLTISSLQPEDFASYYCQQSYTTPRTFGQGTKLEIK
B8: W85-1D12 (protein)
chain 1: QVQLQESGPGLVQPSETLSLTCTVSGGSSSGHYWSWIRQPPGKGLEWMGHVYNSGSTNYNPSLKSRVTISVDTSKSQFSLKLTAVTAADTAVYYCARGAGYDYAWGSYRWNYFDNWGQGTPVTVSS
chain 2: DIQMTQSPSSLSASVGDRVTITCQASQDISNYLNWYQQKPGKAPRVLIYDASNLETWVPSRFTGRGSGTDFSVSISSLQPEDIATYYCQQYHNFPYTFGQGTNLESK
B9: AG1-E04 (protein)
chain 1: VQLVESGGGVVQPGRSLRLSCSASGFTFRSFAMHWVRQAPGRGLEWVAVMWIDGRGKDYADSVKGRFTISRDNSKSTLYLQMNNLRAEDTAVYYCARDQATKGLKPWGQGTLVTVSS
chain 2: DIQMTQSPSSLSASVGDKITITCRASQSISTYLNWYQQKPGTAPKLLIYAASSLQSGVPSRFSGSGSGTGFTLTISSLQPEDFATYYCQQSYSTPYTFGQGTKVEIK
B10: 014-10-3F03 (protein)
chain 1: QVQLVESGGGVVQPGRSLRLSCAASGFTFSNHGMHWVRQAPGKGLEWVAVISFDGRKEYYANSVTGRFTISRDNSKNTLYLQLNSLRPEDTAFYYCAKDSYNGNREGGMDVWGQGTTVTVSS
chain 2: QSALTQPRSVSGSPGQSVTISCTGTSSDVGYYNYVSWYQQEPGKATKLMIYEVTKRPSGVPDRFSGSKSGNTASLTISGLQGEDEADYYCFSYAGRYTWVFGGGTKLTVL
B11: W85-3B05 (protein)
chain 1: EVQLMESGGGVVHPGRSLRLSCAASGFTFSSYAMHWVRQAPGKGLEWVAIISHDGSNKYYADSLKGRFTISRENSRSMVYLHVSSLRTEDTAVYYCARDLCSTSSCYVDHWGQGTLVTVSS
chain 2: DIQMTQSPSSLSASVGDRVTIICRASQGVSNWLAWYQQKPGKAPKSLIYAASALQSGVPSRFSGSGSGTEFSLTISNLQPEDFATYYCQQYNSYPLTFGGGTKVEIK
B12: R95-2E07 (protein)
chain 1: EVQLVESGGGLVQPGGSLRLSCAASGFPFSTYWMYWVRQAPGKGLVSVSRINSDGSGTSYADSVEGRFTISRDNAKNTLYFQMNSLRAEDTAVYYCARRFGSGWTEWYFDLWGRGTLVTVSS
chain 2: DIQMTQSPSTLSASVGDKVTITCRASQSINRWLAWYQQKPGKAPKLLIYRASSLESGVPSRFSGSGSGTEFTLTISSLQPDDFATYFCQHYEGYSWTFGQGTKVDIK
B13: 024-10-4C04 (protein)
chain 1: EVQLVQSGAEVKKPGESLKISCKGSEYSFSNYWIGWVRQMSGKGLEWMGIIYPDDSDTRYSPSFQGQVTISADKSISTAYLQWSSLKASDTAMYYCVRHSDAHSTNPDPPFYFRFAMDVWGQGTTVTVSS
chain 2: QSVLTQPPSVSGAPGQRVIISCTGNNSNIGAGHDVHWYQQVPGTAPKLLIFGNKNRPSGVPDRFSGSKSGSSASLAITGLQAADEADYYCQSYDNSLSLSHYWVFGGGTKVTVL
B14: W85-1B04 (protein)
chain 1: LVQLQQWGAGLLKPSETLSLTCAVYGGSFSGYYWSWIRQPPGKGLEWIGEINHSGSSNYKPSLKSRVAISVDTSKNQFSLKLSSVTAADTAVYYCARGGRDGYNYTPFRAFDIWGQGTMVTVSS
chain 2: SYELTQPPSVSLSPGQTASITCSGDKLGDKYVCWYQQKPGQSPVLVIYADSKRPSGIPERFSGSNSGNTATLTISGTQAMDEADYYCQAWDTSTAIFGGGTRLTV
B15: 024-10-4C05 (protein)
chain 1: QLQLQESGPGLVKPSETLPLICTVSGGAIRFSSYYWGWIRQAPGKGLEWIATIHYSGTAHYNPSLKSRLTISVDTSTNQFSLRLSSVTAADTAVYYCARHRGYCSGGGCFGEVYFDSWGQGALVTVSS
chain 2: DIQMTQSPSSLSASVGDRVTITCRASQNIRTYLSWYQQKPGGAPKLLIYAASSLQSGVPLRFSGSGSGTDFTLTINGLQPEDFATYYCQQSYTTIVFGGGTKVEIK
B16: C1-2-2F04 (protein)
chain 1: VQLVESGGGVVQPGGSLRLSCAASGFIFTDYVMHWLRLTPGKGLEWVAIISFDGSNTYYTDSVKGRFTISRDQSANTLYLLMNSLRPDDTAVYYCVRGQDSSHYFDAWGQGALVTVSS
chain 2: EIVMTQSPATLSVSPGERATLSCRASQDIGTNLAWYQQKPGLAPRLLIYGVSTRATGIPARFSGSGSETEFTLTISIMQSEDCAVYFCQQYDFWPTFGQGTKVEIK
B17: 045-09-1F04 (protein)
chain 1: EVQLVESGGGLVQPGGSLRLSCAGSGFSFSSYSMNWVRQAQGRGLEWVSYISSYSGTIYYADSVKGRFTISRDNAKNSLYLQMNSLTADDTAVYYCARDDDSNDYNQDRYYYYGMDVWGQGTTVTVSS
chain 2: EIVMTQSPATLSVSPGERATLSCRASQSVSSNLAWYQQKPGQAPRLLIYGASTRATGIPARFSGSGSGTEFTLTISSLQSEDFALYYCQQYDNWPPITFGQGTRLEIK
B18: antibody 5D03 (protein)
chain 1: VQLVQSGAEMKKPGESLQISCEGSGYNFNGYWIGWLRQMPGKGLEWMGIIHPSDSDTRYSPSLQGQVTISVDKSISTAYLLWNSLKTSDTAIYYCARRGGANYGLDYWGQGTLVTVSS
chain 2: DIQMTQSPSSLSASVGDRVTITCRARQTINRYLNWYQQKPGKAPKLLIYAATNLQSGVPSRFSGTGSGTLFTLTISSLQPEDLATYFCQQTYSTLGTFGPGTKVDIK
B19: antibody 3E06 (protein)
chain 1: VQLQESGPGLVKPSETLSLNCTVSGGSIITSSLYWGWIRQPPGKGLEWIGCIYVDGSTYYNPSLTSRVTISVDTSKNQFSLSLTSVTAQDTAVYYCARPTGEGGGAFDIWGQGTMVTVSS
chain 2: B6 chain 2 with S31I, Y36F, A40P, V56T, R65S, D92N, S93I, L95W, G99Q

Biological target: H1 HA stem construct (mini-HA #4900)
Test: mRNA display binding score; higher = more enriched on the antigen
Conditions: antigen blocked with: nothing
Protocol: (§1)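 A pool of natively paired antibodies, displayed as scFv on mRNA, was selected once on antigen-coated beads and sequenced before and after; two replicates.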

mRNA display binding score, inactive:
B1 1.8, B2 -0.0214, B3 1.01, B4 -0.168, B5 1.3, B6 0.914, B7 0.164, B8 -0.0843, B9 -0.537, B10 -0.908, B11 0.29, B12 0.324, B13 0.386, B14 0.0976, B15 -1.08, B16 0.0839, B17 0.357, B18 -1.02, B19 0.307

Biological target: H3 HA stem construct (H3ssF)
Test: as above
Conditions: antigen blocked with: nothing
Protocol: as §1

mRNA display binding score, inactive:
B1 0.921, B2 -0.523, B3 0.839, B4 2.64, B5 2.49, B6 -4.1e-06, B7 -0.188, B8 -0.106, B9 -0.422, B10 3.37, B11 -0.391, B12 0.00968, B13 -0.43, B14 -0.0726, B15 0.484, B16 -0.739, B17 -0.132, B18 0.28, B19 -0.219
